Test results as given in article PMC10668032.
Some of the results follow. At the low end of the ranking the order means little.

Target: SIX1 homeodomain (reference allele) (UniProt Q15475)
Assay: universal protein binding microarray
Conditions: Universal all-10-mer PBM (8x60K, AMADID 030236), 300 nM GST-tagged protein, Alexa Fluor 488 anti-GST; buffer, salt, pH and temperature not stated; high values mean tight binding; most listed sequences are background and not binding sites; double strand, one strand shown

| Sequence | binding signal [E-score] |
| --- | --- |
| ACCAGCAT | 0.00743 |
| CATCAGGA | -0.0282 |
| CAGGAACG | -0.223 |
| ATATCCAT | 0.389 |
| CTTATAGA | -0.0243 |
| CACGGCTC | 0.0483 |
| GGGTCGAC | -0.000235 |
| CTAATCCA | 0.116 |
| ATTAGATA | 0.314 |
| TCCCCAGA | 0.0998 |
| AACTCTGT | -0.182 |
| CTGCATCC | -0.0343 |
| CGCTGTGA | 0.0124 |
| CACGGGAA | -0.0687 |
| ACTAGGCG | 0.0414 |
| CAACCAGC | -0.113 |
| ATGACAAT | 0.0306 |
| ACTTTTGC | -0.112 |
| CTGGTGGA | -0.102 |
| CACCAAAA | 0.00779 |
| GGTCACGA | -0.146 |
| AACTAGAC | 0.0815 |
| CTGTTAAC | -0.00288 |
| AGAGGCCT | -0.212 |
| ACGAGCAC | -0.0772 |

| Sequence | binding signal [E-score] |
| --- | --- |
| AACACCGC | 0.293 |
| AATCACGG | -0.145 |
| AATTCAGC | -0.065 |
| AAGCTCCG | -0.203 |
| CTAGGGAA | -0.106 |
| AAAACTCG | -0.063 |
| AATACCGA | 0.321 |
| GAGATATC | 0.442 |
| AGGTGCTC | -0.289 |
| GTTAGTTA | -0.182 |
| CATAGAAG | -0.0626 |
| AAAGACCG | -0.123 |
| AACAAGTT | -0.153 |
| ACTTCCCT | -0.134 |
| CAATGATG | -0.155 |
| CTACCCTA | -0.0466 |
| AGGGGGAT | 0.376 |
| GAGGCCAC | -0.172 |
| GAAGCTTC | -0.178 |
| TGCTACAA | 0.0649 |
| AGCGTGAC | -0.145 |
| CGTACACG | 0.0605 |
| CCAGGGAG | -0.0191 |
| CTTAAATA | -0.102 |
| AGGACGTA | -0.124 |

| Sequence | binding signal [E-score] |
| --- | --- |
| ACATTCTA | -0.223 |
| CGTCCTCC | -0.139 |
| CGACATTC | -0.124 |
| CGTGTCGA | -0.0256 |
| GCGACAAA | -0.0995 |
| GTCAAGAA | -0.0764 |
| TCAAATAA | 0.0171 |
| GGGATGGA | 0.15 |
| GTTCATCA | -0.17 |
| ACAGTTGG | -0.202 |
| AATATATA | 0.261 |
| AAGGCCTC | -0.194 |
| TGAGAGAA | -0.157 |
| CCAGTGAC | -0.00037 |
| CGTCGGGC | -0.145 |
| TAAGGGGA | 0.0412 |
| GCTTGCTA | -0.194 |
| ACCACTCA | 0.0361 |
| CAAGGAAG | -0.0241 |
| CGCGAGAA | 0.0298 |
| CTTGCCAA | -0.125 |
| AAGGTGCC | -0.234 |
| CCGTTTGA | 0.0947 |
| ATTAAACG | 0.0909 |
| ACAGCCAG | -0.164 |

| Sequence | binding signal [E-score] |
| --- | --- |
| GACGAGAC | 0.0789 |
| AGAGTCGG | -0.0854 |
| GCATGCGC | 0.0103 |
| CTTCGCAC | -0.276 |
| CGTATATC | 0.336 |
| ATGGCCGG | 0.124 |
| CACGTCCC | -0.148 |
| ACTGATAC | 0.465 |
| ACGCGCCG | 0.026 |
| CACATACG | -0.128 |
| AGCCGAAG | -0.00144 |
| CAAGAATG | -0.185 |
| CCCTAAAC | -0.176 |
| CAACGCAA | -0.39 |
| ACTTAGGA | -0.0746 |
| ATAGACCA | 0.0192 |
| AGAGTCGC | -0.203 |
| ATCCCGTC | 0.267 |
| GCACGATA | 0.325 |
| AAGGGGTA | 0.245 |
| ACACCTTA | 0.238 |
| ATCAAGTA | 0.234 |
| AACCCGGT | 0.137 |
| AGAAACTG | -0.149 |
| AACATGGA | -0.112 |

| Sequence | binding signal [E-score] |
| --- | --- |
| AATTGTAC | -0.101 |
| AAGTCAGA | -0.169 |
| CTTTAGAC | -0.0432 |
| ACTAGTTG | -0.228 |
| CCCTCCGA | 0.0672 |
| CCAGCTCC | -0.0302 |
| AACCACAC | -0.0933 |
| GGGGATTA | 0.302 |
| GGCTTGGA | -0.0842 |
| ACCGATCA | 0.291 |
| TCCTTCAA | -0.114 |
| AAGCCAGG | 0.00315 |
| AATAGGAA | -0.0992 |
| ATTATTCG | 0.00454 |
| TAATTTGA | -0.0922 |
| ATTCTGAC | -0.0305 |
| GGGCTCAA | 0.0305 |
| AGATCTCA | 0.262 |
| AACTAGAA | -0.0382 |
| CCACAACA | -0.093 |
| CGGATTTC | 0.0864 |
| TACACAGA | -0.0145 |
| CTGCTGTA | -0.0753 |
| CTTCGAGC | -0.108 |
| AGAGTTCA | -0.32 |

| Sequence | binding signal [E-score] |
| --- | --- |
| ACCTCATG | -0.0541 |
| ATAGTAAC | -0.133 |
| CGACCGAA | -0.113 |
| ACAACGGT | -0.155 |
| CGATTTGC | -0.0936 |
| AAGAGCAA | -0.0626 |
| GCGGACCA | -0.164 |
| ACCCGCGG | 0.193 |
| GGGAAAGA | 0.052 |
| CACTTCTC | 0.0408 |
| GTGATACA | 0.444 |
| ACGGAGTC | -0.186 |
| ATGAACAG | -0.146 |
| AACAATCA | -0.0794 |
| CATACATC | 0.118 |
| CGGCCTAC | -0.165 |
| GCTTAACA | -0.0268 |
| AGGTAAAT | -0.089 |
| CCCACAGA | 0.0121 |
| AAAGTGGA | -0.0711 |
| ACAGAGAC | 0.0886 |
| CGACGAAA | -0.157 |
| CCTCGCTC | 0.13 |
| CCGTCCTA | -0.124 |
| CGCATCCG | 0.146 |

| Sequence | binding signal [E-score] |
| --- | --- |
| ACTAACAT | -0.0421 |
| TCCTCGAA | 0.0144 |
| CGTCGTAG | -0.158 |
| CAGAGCTG | -0.0954 |
| ATCGTTCC | 0.0494 |
| CTCGCAGC | -0.123 |
| CCGTCACA | -0.181 |
| TACGCTCA | 0.00225 |
| ATAGTCCA | 0.135 |
| ATGAGCAA | -0.000115 |
| ATAGGGCC | -0.017 |
| GGAACCAA | -0.121 |
| CCGTCACC | -0.15 |
| ATCTTGGC | -0.102 |
| ATATCTAG | 0.285 |
| ACGGGAAA | -0.148 |
| CGGGACGC | -0.135 |
| GATGACCA | -0.113 |
| CCTTCTGC | -0.0288 |
| ATAGGAAT | 0.153 |
| GTGGCGGA | -0.0347 |
| ATTCACGG | -0.0161 |
